# From PubChem BioAssay AID360 (National Center for Advancing Translational Sciences (NCATS), 2006)
# Screen size: about 48,000 compounds; about 550 (1.1%) were called active. Not shown: some 4% with an inconclusive outcome. Cut-off read from the data, not from the text of the source: active = potency below about 15 µM; inconclusive = mostly about 16 µM to 33 µM; inactive = weaker than that. This is one part of the list.
# Molecular target: Lysosomal acid glucosylceramidase (Homo sapiens) (UniProt P04062)
# Test: Glucocerebrosidase;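 note: the screen sought inhibitors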
# Details: purified enzyme, resorufin glucoside fluorescence (screen aimed at inhibitors), 20 min
# Method in brief: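 Compounds titrated against 0.2 nM normal enzyme, 30 uM resorufin beta-D-glucopyranoside substrate, citrate/phosphate buffer with taurocholate and tween-20, pH 5.9. Reaction ran 20 min at room temperature; fluorescence (Ex 548/Em 600) gave AC50.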
# Potency is the fitted concentration of half-maximal effect.
# Chain of UniProt P04062 (P04062 whole entry, looked up): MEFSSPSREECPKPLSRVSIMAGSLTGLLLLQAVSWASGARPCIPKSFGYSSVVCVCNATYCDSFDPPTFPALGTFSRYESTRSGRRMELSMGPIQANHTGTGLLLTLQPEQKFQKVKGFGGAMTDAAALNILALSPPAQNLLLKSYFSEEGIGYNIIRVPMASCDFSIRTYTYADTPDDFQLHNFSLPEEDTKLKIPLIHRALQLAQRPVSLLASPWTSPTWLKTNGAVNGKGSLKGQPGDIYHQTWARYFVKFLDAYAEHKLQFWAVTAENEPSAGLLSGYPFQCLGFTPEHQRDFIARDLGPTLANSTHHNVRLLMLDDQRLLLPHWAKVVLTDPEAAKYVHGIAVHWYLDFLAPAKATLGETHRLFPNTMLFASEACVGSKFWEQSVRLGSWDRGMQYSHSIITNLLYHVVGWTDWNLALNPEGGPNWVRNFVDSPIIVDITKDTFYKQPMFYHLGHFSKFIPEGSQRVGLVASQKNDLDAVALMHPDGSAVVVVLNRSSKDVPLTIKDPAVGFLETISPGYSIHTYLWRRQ
row,Compound,Potency
1,CCOC(=O)c1cn(CC)c2ccc(Br)cc2c1=O,inactive: > 76.9 µM
2,COc1ccc(C(=O)COc2ccc(NC(C)=O)cc2)cc1,inactive: > 76.9 µM
3,Cc1ccc(-n2ncc(C(=O)O)c2C2CCN(C(=O)OC(C)(C)C)CC2)cc1,inactive: > 76.9 µM
4,CCOC(=O)c1cc2sccc2n1CC(=O)N1CCN(C(=O)c2ccco2)CC1,inactive: > 76.9 µM
5,CC1CCN(C(=O)Cn2cc(C(=O)c3ccco3)c3ccccc32)CC1,active: 12.7 µM
6,COc1ccccc1NC(=O)c1ccc(N)cc1,inactive: > 76.9 µM
7,CC(=O)Nc1nonc1-c1nc2ccccc2n1CCC#N,inactive: > 76.9 µM
8,COc1ccc(OC)c(S(=O)(=O)N2c3cc(F)ccc3CCC2C)c1 (centres undefined),inactive: > 76.9 µM
9,COc1ccc(CCn2c(NCCCN3CCOCC3)nc3c2c(=O)[nH]c(=O)n3C)cc1,inactive: > 76.9 µM
10,COc1cc(OC)cc(C(=O)N2CCN(Cc3cccc(F)c3)CC2)c1,inactive: > 76.9 µM
11,O=C(Nc1ccccc1C(=O)N1CCOCC1)C1CC(=O)N(C2CCCC2)C1 (centres undefined),inactive: > 76.9 µM
12,CCN1CCN(C(=O)c2cc3c(=O)n4ccccc4nc3n2Cc2ccccc2)CC1,inactive: > 76.9 µM
13,COc1ccc(CCNS(=O)(=O)c2ccc(C(=O)NCc3ccco3)cc2)cc1OC,inactive: > 76.9 µM
14,COc1ccc(N(CC(=O)Nc2cc(C(=O)O)ccc2C)S(=O)(=O)c2c(C)noc2C)cc1,inactive: > 76.9 µM
15,CCOC(=O)C1CCc2sc(N)c(C#N)c21 (centres undefined),inactive: > 76.9 µM
16,CC1CCCN(c2oc(-c3cccc4ccccc34)nc2C#N)C1 (centres undefined),inactive: > 15.4 µM
17,COc1ccc(NCc2nnc(SCC#N)n2-c2ccccc2OC)cc1,inactive: > 76.9 µM
18,O=C(NC(NCCCN1CCOCC1)(C(F)(F)F)C(F)(F)F)C1CCCCC1,inactive: > 76.9 µM
19,CC(C)NC(=O)c1cc(-c2ccco2)on1,inactive: > 76.9 µM
20,Cc1nn(CC(=O)Nc2ccc3c(c2)oc2ccccc23)c(=O)c2ccccc12,inactive: > 76.9 µM

row,Compound,Potency
1,CCOC(=O)C1CCN(c2nc3cc(OC)ccc3cc2C#N)CC1,inactive: > 76.9 µM
2,Cc1cccc(C(=O)Nc2ncc(CN3CCOCC3)s2)c1,inactive: > 76.9 µM
3,OCCc1ccc(-c2ccc(Cl)cc2)o1,inactive: > 76.9 µM
4,CCc1c(C)nc2ncnn2c1N1CCC(C(=O)N2CCN(c3ccc(F)cc3)CC2)CC1,inactive: > 76.9 µM
5,CCN(CC)S(=O)(=O)c1ccc(NC(=O)C2COc3ccccc3O2)cc1 (centres undefined),inactive
6,O=C(NCCc1ccc(Cl)cc1)C1CCN(S(=O)(=O)N2CCC3(CC2)OCCO3)CC1,inactive: > 76.9 µM
7,O=C(CSc1nnc(-c2ccccn2)n1Cc1ccccc1)N1CCCC1,inactive: > 76.9 µM
8,Cc1ccccc1S(=O)(=O)Nc1nc2ccccc2nc1N1CCOCC1,inactive: > 76.9 µM
9,O=C(Nc1ccc2c(c1)OCCO2)C1CCCN(S(=O)(=O)c2cccs2)C1 (centres undefined),inactive: > 76.9 µM
10,O=C(CSc1nnc(-c2ccccc2)n1Cc1ccccc1)N1CCCC1,inactive: > 76.9 µM
11,COc1nc(-c2ccccc2)ccc1-c1noc(-c2cccs2)n1,inactive
12,COc1cccc(-n2cc3c(c2-c2ccccc2)c(=O)n(C)c(=O)n3C)c1,inactive: > 76.9 µM
13,COC(=O)c1cc(=O)n(C2CC2)c(=NC2CC2)s1,inactive: > 76.9 µM
14,CN(CC(=O)O)S(=O)(=O)c1cccs1,inactive: > 76.9 µM
15,CCOC(=O)CN1C(=O)C(C)(C)Oc2ccc(C(=O)NC(C)(C)CC)cc21,inactive: > 76.9 µM
16,O=C(Cn1cnc2c(nnn2Cc2ccc(Cl)cc2)c1=O)NC1CCCC1,inactive: > 76.9 µM
17,O=C(NCc1ccccc1)C1CC2CCCC(C1)C2=O (centres undefined),inactive: > 76.9 µM
18,Cc1ccc(-c2nc3nc4ccccc4nc3n2Cc2ccco2)cc1,inactive: > 76.9 µM
19,Cn1ccnc1C(=O)c1cc(=O)c2ccccc2o1,inactive: > 76.9 µM
20,CCN(CC)CCCNC(=O)c1cc(-c2ccc(Cl)cc2)on1,inactive: > 76.9 µM

row,Compound,Potency
1,Cn1c(=O)[nH]c(=O)c2c1nc(N1CCCCC1)n2CCCSc1nc2ccccc2s1,inactive
2,CCCn1cnc2c(c1=O)c1nc3ccccc3nc1n2CCc1ccccc1,active: 7.01 µM
3,Cc1cc(NC(=O)C23CCC(C)(c4nc5cc(Cl)c(Cl)cc5nc42)C3(C)C)no1 (centres undefined),inactive: > 76.9 µM
4,Cc1ccc(-n2ncc3c(=O)n(CC(=O)NCc4ccco4)cnc32)cc1,inactive: > 76.9 µM
5,CCOC(=O)C1=C(C)NC(C)=C(C(=O)OCC)C1c1cc2ccc(C)cc2[nH]c1=O,inactive: > 76.9 µM
6,CCCC(=O)Nc1cc(C)c(NC(=O)c2ccccn2)cn1,inactive: > 76.9 µM
7,CCc1c(C)[nH]c2ccccc2c1=O,inactive: > 76.9 µM
8,Cc1ccc(Cn2ccc(NC(=O)c3cc(-c4cccc(Cl)c4)on3)n2)cc1,inactive: > 76.9 µM
9,COC(=O)c1ccccc1CCC(C)=O,inactive: > 76.9 µM
10,CCCCNC(=O)CC1N=C2c3ccccc3N=C(SCC(=O)Nc3cccc(OC)c3)N2C1=O (centres undefined),inactive: > 76.9 µM
11,Cc1cc(NC(=O)CSc2nnc(COc3ccccc3)n2Cc2ccco2)no1,inactive: > 76.9 µM
12,O=C(c1ccco1)N(Cc1cccs1)C1CCS(=O)(=O)C1 (centres undefined),inactive: > 76.9 µM
13,COC(=O)CSc1nc(NC(C)C)nc(N2CCOCC2)n1,inactive: > 76.9 µM
14,O=C1OCCC1Sc1nnc(-c2ccco2)o1 (centres undefined),inactive: > 76.9 µM
15,CCCCc1c(C(=O)O)cc(OC)cc1C(=O)O,inactive: > 76.9 µM
16,COC(=O)c1ccccc1NC(=O)c1cnc2sccn2c1=O,inactive: > 76.9 µM
17,CCCc1cc(=O)n2[nH]cnc2n1,inactive: > 76.9 µM
18,CC1CCN(C(=O)C2CCN(CCCc3ccccc3)CC2)CC1,inactive: > 76.9 µM
19,CCN(CC)c1ccc2cc(NC(=O)CCC(=O)O)c(=O)oc2c1,inactive: > 76.9 µM
